The supplement of paper PMC10126150
Sequences with one replicate were seen in a single cluster, so their values are uncertain.

What follows are sequences tested on ATP (assay: switch fluorescence ratio, 500 uM ATP over buffer (Cy3 cluster intensity, sum of 5 cycles each) (fold (ratio)); higher = stronger signal-on switching upon ATP binding; sequences stand for … in TCGTCGGCAGCGTCAGATGTGTATAAGAGACAGTTTTTTTTTTTTTTTTTTTTTTTTT…TC). Conditions: aptamer strand: ATP DNA aptamer (quencher-CACCTGGGGGAGTATTGCGGAGGAAGG + anchor), 100 nM annealed; ATP concentration: 500 uM; one replicate.
Summary of the method: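 Between each of five buffer/ATP cycles, the flow-cell was stripped with NaOH and re-annealed. Each cycle imaged Cy3-labelled switching-strand clusters, annealed to 100 nM quencher-labelled ATP aptamer on a modified Illumina MiSeq flow-cell, first in selection buffer and then after 15 min with 500 uM ATP at 22 °C. The fluorescence ratio is summed target-cycle over summed buffer-cycle Cy3 intensity per cluster, averaged per switch-domain sequence, with clusters outside 100-1000 RFU excluded.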
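Further: ATP exposure 15 min at 22 °C before imaging.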

Sequence | switch fluorescence ratio
TGGTGCGGGT | 0.994
AGGGGTCAGC | 0.946
TCGTATAGCT | 1.01
ATTGATTCAG | 1.01
CGAGTGCGTC | 1.04
CGCCTACAGC | 1.05
TCGGAGAAAG | 1
TTACGATGAA | 1.04
GGATATTACT | 1.04
GGCCACTGGG | 1.09
TCGATCCCCA | 1.04
CCCAAGTATA | 1.04
ACTCGAGGAG | 0.97
TCTGTTTCTA | 1.02
AAAGAATAGC | 1.01
GTTTAGTGTG | 0.986
CAATTCAGTC | 0.967
TCCCCCCCGA | 1.12
ATTACCTGCT | 1.01
ATTAGGACCT | 1.3
GACTTTGATG | 1.01
TGGCATGGTG | 1.02
AAAACCGACT | 1.05

Sequence | switch fluorescence ratio
GTTGATAAAT | 0.981
CCACGGACTT | 1.42
AGACGGTCAG | 0.988
TATACAGCGG | 0.994
CACGGCTTTC | 1.09
GTCTAATCGG | 1
TTCTCATGGC | 1.04
GTGTTTAGG | 0.972
GGGCAAGTCC | 1.03
TTACATCCGT | 1.09
TTATCCGCTT | 2.62
TGTATTTTTC | 1.01
TCATGAAGAA | 1.4
TTTTGGCTGC | 1.04
GTAAAAACCT | 1.03
AACGCCGTCA | 0.989
ATTGATAACA | 0.955
GAGAGGATAC | 1.01
GCGCAACCCA | 0.979
TGTCATTAG | 1.02
CGCGTGAGGC | 1.1
TACATTGTTG | 0.993
TGCCGGGCCT | 1.03

Sequence | switch fluorescence ratio
TTTCTATTAA | 0.955
CGAAAAATTG | 1.02
GGCAAATCAC | 1.09
ACTCCATCCT | 1.08
TTACCCGTAA | 1.59
TATACTGGTA | 1.02
GGCGTGGTGA | 1.05
ATAATAAGAG | 0.967
ATTTGTGCGG | 0.977
GAGTATATAT | 0.996
AATGAGATTT | 1.01
GTTGCGACAC | 0.989
GGACTAACGG | 1.06
GGGCGCGTGT | 0.942
CGTCGTATGC | 1.04
CGTTCTTAGA | 1.01
GAAGACGCTG | 0.958
AAGGTTGTTC | 1.01
GCTTCAGGAA | 1.04
CACTACATGT | 1.03
AGGTAAAACT | 1
AGGCATATTC | 1.09
GCGTGCTAGG | 0.959

Sequence | switch fluorescence ratio
AAGCAATGTA | 1.2
ATGAGTAGAG | 0.963
GTCTGCCCCC | 1.46
CGCCTCTGG | 1.05
TATAGCTTCT | 1.07
GAACATTTA | 0.964
AACTGGGTAA | 1.21
AATCGTATGA | 0.951
CGATACCTAA | 1.04
TCACACGTTA | 1.23
GACGAGCTAT | 2.28
CTATGTAACG | 0.972
CCTGACTAG | 1.01
AAATGTACCT | 1.47
ACTTGATCAA | 1.03
AGAAGTGATC | 1.05
CGACTTAAGC | 1.08
TCCCTCTCTG | 1.02
TAGCCGGCAT | 0.98
CAATTTGTTG | 0.969
CGGGAGGCCC | 1.01
GTTTGTCGCG | 0.962
GATACCTTAT | 1.06

Sequence | switch fluorescence ratio
CGAAGACGC | 1.08
CCCCGGACGG | 1.03
GTGGGTTAC | 0.999
TCCTTGTTAT | 0.97
TGCCGCTATA | 3.07
TTCAATGT | 0.951
CGGGAAAGGG | 1.04
GATTCTTTAA | 1.01
GAATAAATCT | 0.984
GTCACCCATG | 1.13
AACGGGCCTC | 1.06
TGCGTCTGCT | 1.02
GGGTAAGGC | 1.58
CGGGCCGGT | 1.01
GTTGTCCCGA | 1.04
CTACTTGCAC | 1.26
GAGCGCCTAC | 1.51
CTAGCGCCGT | 1.02
AACTGCTCCA | 1.08
ATTACGCACA | 1.81
ACACCCACTA | 1.47
ATCAAGGGAT | 0.993
CGGCACCATC | 1.18

Sequence | switch fluorescence ratio
CTCGGAAGCT | 1.04
AGCGCCTCTA | 0.958
TTTACTTTTA | 1.01
AAGGGTATAG | 1.07
TCGAAATAGA | 0.971
TTCATGGTGC | 1.21
TTAACTCTTT | 0.97
TCACCAAGAT | 1.08
ATGTCTGAG | 0.96
ATGCATTTAT | 0.998
AGGCATGTTC | 0.981
GAACTTCTTT | 0.986
TTATATACCG | 0.977
AAAGCTTTCC | 1.72
GTCCTGAAGA | 1
TTCCGGGGTC | 2.23
TTTTGCTCCC | 1.34
TGAGTCGTTA | 0.991
ATGTAAGGAT | 1.07
AGTCACATCC | 1.05
TGTCCAGTG | 1.23
AACTTCCATC | 1.09
TAGACTTTCG | 0.981

Sequence | switch fluorescence ratio
AAACGTTTT | 0.982
ACTTAGAGTA | 1.03
GTATGAGAGG | 0.955
CCTTTTTCCA | 1.04
TTGAGAAGCG | 0.985
GATTAATCAA | 1.02
CGATGTATGG | 0.985
ACTAATAGGA | 1.01
GAAAGATTCG | 1
CGGAGACTCA | 1.06
TGACTATGTG | 0.968
CTCACACTCT | 1.08
AACAGCACTC | 1.37
AGGGTCAGAG | 0.989
ATTTCTTTAC | 1.01
TTGGAACTAT | 1.05
ACTGAATATT | 0.991
AGTCGTCAGA | 1
GTTACACCGT | 1.02
